# Some of the results follow.
# Tests used:
# Assay in all cases: glycan array binding signal (z-score within array); higher = stronger binding
# Settings in all cases: glycan notation: IUPAC condensed, linker removed
# Glc(b1-4)Glc = biological target: Glc(b1-4)Glc
# Outline: (§1)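 Negative Z-scores can be read as non-binding. The Z-score is calculated within each array and then averaged across arrays of one protein sequence at different concentrations or buffers and across linkers. Arrays, 3228 in all, were curated from the Consortium for Functional Glycomics database and kept only where the protein sequence was available.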
# Glc(b1-6)Glc = biological target: Glc(b1-6)Glc
# Outline: as §1
# GlcA(b1-3)Gal = biological target: GlcA(b1-3)Gal
# Outline: as §1
# GlcA(b1-3)GlcNAc = biological target: GlcA(b1-3)GlcNAc
# Outline: as §1
# GlcA(b1-6)Gal = biological target: GlcA(b1-6)Gal
# Outline: as §1
# [1] = biological target: GlcA3S(b1-3)Gal(b1-4)GlcNAc(b1-2)Man
# Outline: as §1
# [2] = biological target: GlcA3S(b1-3)Gal(b1-4)GlcNAc(b1-3)Gal(b1-4)Glc
# Outline: as §1
# [3] = biological target: GlcNAc(a1-3)Gal(b1-4)GlcNAc
# Outline: as §1
# [4] = biological target: GlcNAc(a1-4)Gal(b1-3)GlcNAc
# Outline: as §1
# [5] = biological target: GlcNAc(a1-4)Gal(b1-4)GalNAc
# Outline: as §1
# [6] = biological target: GlcNAc(a1-4)Gal(b1-4)GlcNAc
# Outline: as §1
# [7] = biological target: GlcNAc(a1-4)Gal(b1-4)GlcNAc(b1-3)Gal(b1-4)Glc
# Outline: as §1
# [8] = biological target: GlcNAc(a1-4)Gal(b1-4)GlcNAc(b1-3)Gal(b1-4)GlcNAc
# Outline: as §1
# [9] = biological target: GlcNAc(a1-4)Gal(b1-4)GlcNAc(b1-3)Gal(b1-4)GlcNAc(b1-3)Gal(b1-4)GlcNAc
# Outline: as §1
# [10] = biological target: GlcNAc(a1-4)Gal(b1-4)GlcNAc(b1-3)Gal(b1-4)[Fuc(a1-3)]GlcNAc(b1-3)Gal(b1-4)[Fuc(a1-3)]GlcNAc
# Outline: as §1
# [11] = biological target: GlcNAc(a1-6)Gal(b1-4)GlcNAc
# Outline: as §1
# [12] = biological target: GlcNAc(b1-2)Gal(b1-3)GalNAc
# Outline: as §1
# [13] = biological target: GlcNAc(b1-2)Man(a1-3)[GlcNAc(b1-2)Man(a1-6)]Man(b1-4)GlcNAc(b1-4)GlcNAc
# Outline: as §1
# [14] = biological target: GlcNAc(b1-2)Man(a1-3)[GlcNAc(b1-2)Man(a1-6)]Man(b1-4)GlcNAc(b1-4)[Fuc(a1-6)]GlcNAc
# Outline: as §1
# [15] = biological target: GlcNAc(b1-2)Man(a1-3)[GlcNAc(b1-4)][GlcNAc(b1-2)Man(a1-6)]Man(b1-4)GlcNAc(b1-4)GlcNAc
# Outline: as §1
# [16] = biological target: GlcNAc(b1-2)Man(a1-3)[GlcNAc(b1-4)][GlcNAc(b1-2)Man(a1-6)]Man(b1-4)GlcNAc(b1-4)[Fuc(a1-6)]GlcNAc
# Outline: as §1
# [17] = biological target: GlcNAc(b1-2)[GlcNAc(b1-4)]Man(a1-3)[GlcNAc(b1-2)Man(a1-6)]Man(b1-4)GlcNAc(b1-4)GlcNAc
# Outline: as §1
# [18] = biological target: GlcNAc(b1-2)[GlcNAc(b1-4)]Man(a1-3)[GlcNAc(b1-4)][GlcNAc(b1-2)Man(a1-6)]Man(b1-4)GlcNAc(b1-4)GlcNAc
# Outline: as §1
# [19] = biological target: GlcNAc(b1-2)[GlcNAc(b1-4)]Man(a1-3)[GlcNAc(b1-4)][GlcNAc(b1-2)[GlcNAc(b1-6)]Man(a1-6)]Man(b1-4)GlcNAc(b1-4)GlcNAc
# Outline: as §1
# [20] = biological target: GlcNAc(b1-2)[GlcNAc(b1-4)]Man(a1-3)[GlcNAc(b1-4)][GlcNAc(b1-2)[GlcNAc(b1-6)]Man(a1-6)]Man(b1-4)GlcNAc(b1-4)[Fuc(a1-6)]GlcNAc
# Outline: as §1
# [21] = biological target: GlcNAc(b1-2)[GlcNAc(b1-6)]Man(a1-6)[GlcNAc(b1-2)Man(a1-3)]Man(b1-4)GlcNAc(b1-4)GlcNAc
# Outline: as §1
# [22] = biological target: GlcNAc(b1-2)[GlcNAc(b1-6)]Man(a1-6)[GlcNAc(b1-2)Man(a1-3)]Man(b1-4)GlcNAc(b1-4)[Fuc(a1-6)]GlcNAc
# Outline: as §1
# [23] = biological target: GlcNAc(b1-2)[GlcNAc(b1-6)]Man(a1-6)[GlcNAc(b1-4)][GlcNAc(b1-2)Man(a1-3)]Man(b1-4)GlcNAc(b1-4)GlcNAc
# Outline: as §1
# GlcNAc(b1-3)Fuc = biological target: GlcNAc(b1-3)Fuc
# Outline: as §1
# GlcNAc(b1-3)Gal = biological target: GlcNAc(b1-3)Gal
# Outline: as §1
# [24] = biological target: GlcNAc(b1-3)Gal(b1-3)GalNAc
# Outline: as §1
# GlcNAc(b1-3)Gal(b1-4)Glc = biological target: GlcNAc(b1-3)Gal(b1-4)Glc
# Outline: as §1
# [25] = biological target: GlcNAc(b1-3)Gal(b1-4)GlcNAc
# Outline: as §1
# [26] = biological target: GlcNAc(b1-3)Gal(b1-4)GlcNAc(b1-2)Man(a1-3)[GlcNAc(b1-3)Gal(b1-4)GlcNAc(b1-2)Man(a1-6)]Man(b1-4)GlcNAc(b1-4)GlcNAc
# Outline: as §1
# [27] = biological target: GlcNAc(b1-3)Gal(b1-4)GlcNAc(b1-2)Man(a1-3)[GlcNAc(b1-3)Gal(b1-4)GlcNAc(b1-2)Man(a1-6)]Man(b1-4)GlcNAc(b1-4)[Fuc(a1-6)]GlcNAc
# Outline: as §1
# [28] = biological target: GlcNAc(b1-3)Gal(b1-4)GlcNAc(b1-2)[GlcNAc(b1-3)Gal(b1-4)GlcNAc(b1-6)]Man(a1-6)[GlcNAc(b1-3)Gal(b1-4)GlcNAc(b1-2)Man(a1-3)]Man(b1-4)GlcNAc(b1-4)GlcNAc
# Outline: as §1
# [29] = biological target: GlcNAc(b1-3)Gal(b1-4)GlcNAc(b1-3)Gal(b1-4)GlcNAc
# Outline: as §1
binder,measurement,setting,value
Epa23 (Candida glabrata) (protein) MGSSHHHHHHSSGLVPRGSHMIPNPFEGTINNFPSGCSPNHGLYNRGLTMELYNYSYIHPQSIQSYFNTSTLKKMEKGQCWDPSYLDVNYPRTGYKTHNRFAKVNGIDGILDFEFNPTRSCVPSKGQLPQNYNYPLQFTLSNFTMLLYGYFKPKVTAKHTFTIFADDLLFLNFGAGNAFDCCQQQDTIDDFGNYQAYALWGSDTQQNTLTVNLDANIYYPIRMFYNNRDFKGALNMYFTTDESNTKINDFSGYLFNIPDSSEGCPAHISYETECGNVSG,glycan array binding signal (z-score),Glc(b1-4)Glc,-0.305
same,glycan array binding signal (z-score),Glc(b1-6)Glc,-0.206
same,glycan array binding signal (z-score),GlcA(b1-3)Gal,-0.208
same,glycan array binding signal (z-score),GlcA(b1-3)GlcNAc,-0.249
same,glycan array binding signal (z-score),GlcA(b1-6)Gal,-0.128
same,glycan array binding signal (z-score),[1],-0.204
same,glycan array binding signal (z-score),[2],-0.21
same,glycan array binding signal (z-score),[3],-0.22
same,glycan array binding signal (z-score),[4],-0.263
same,glycan array binding signal (z-score),[5],-0.164
same,glycan array binding signal (z-score),[6],-0.235
same,glycan array binding signal (z-score),[7],-0.241
same,glycan array binding signal (z-score),[8],-0.127
same,glycan array binding signal (z-score),[9],-0.257
same,glycan array binding signal (z-score),[10],-0.08
same,glycan array binding signal (z-score),[11],0.812
same,glycan array binding signal (z-score),[12],-0.243
same,glycan array binding signal (z-score),[13],-0.245
same,glycan array binding signal (z-score),[14],-0.234
same,glycan array binding signal (z-score),[15],-0.208
same,glycan array binding signal (z-score),[16],-0.283
same,glycan array binding signal (z-score),[17],-0.21
same,glycan array binding signal (z-score),[18],-0.119
same,glycan array binding signal (z-score),[19],-0.258
same,glycan array binding signal (z-score),[20],-0.14
same,glycan array binding signal (z-score),[21],-0.187
same,glycan array binding signal (z-score),[22],-0.233
same,glycan array binding signal (z-score),[23],-0.185
same,glycan array binding signal (z-score),GlcNAc(b1-3)Fuc,-0.214
same,glycan array binding signal (z-score),GlcNAc(b1-3)Gal,-0.272
same,glycan array binding signal (z-score),[24],-0.149
same,glycan array binding signal (z-score),GlcNAc(b1-3)Gal(b1-4)Glc,-0.101
same,glycan array binding signal (z-score),[25],-0.198
same,glycan array binding signal (z-score),[26],-0.24
same,glycan array binding signal (z-score),[27],-0.199
same,glycan array binding signal (z-score),[28],-0.14
same,glycan array binding signal (z-score),[29],-0.193

# From the supplement of paper PMC8728848
